PubChem BioAssay AID588342 (National Center for Advancing Translational Sciences (NCATS), 2011)
Screen size: about 360,000 compounds; about 25,000 (6.9%) were called active. The shares of active, inactive and inconclusive entries below differ from those in the screen. The call rests on the fitted dose curve; in most records, active means well fitted inhibition curve with a large enough effect; inconclusive means small, poorly fitted or top-dose-only effect; inactive means flat fitted curve, though single readings scatter. Potencies of inconclusive entries are doubtful fits and often do not repeat.

The compounds below were run against Luciferin 4-monooxygenase (Photinus pyralis) (UniProt P08659) (assay: qHTS profiling assay for firefly luciferase inhibitor/activator using purifed enzyme and Km concentrations of substrates (counterscreen for miR-21 project)). Conditions: purified FLuc, luminescence inhibition; series mostly up to 57.5 µM.
How it was run: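 Biochemical qHTS of compounds, final roughly 60 µM downward over six points, against 10 nM purified firefly luciferase using Km concentrations of substrates (10 uM D-luciferin, 10 uM ATP) in Tris acetate pH 7.5 buffer; luminescence output.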
Further: nearly all actives have a fitted effect of over 55% in size.
Potency means the concentration at half of the fitted maximal effect; tags describe the fitted curve by direction and shape.

UniProt P08659, sequence (P08659 whole entry, looked up): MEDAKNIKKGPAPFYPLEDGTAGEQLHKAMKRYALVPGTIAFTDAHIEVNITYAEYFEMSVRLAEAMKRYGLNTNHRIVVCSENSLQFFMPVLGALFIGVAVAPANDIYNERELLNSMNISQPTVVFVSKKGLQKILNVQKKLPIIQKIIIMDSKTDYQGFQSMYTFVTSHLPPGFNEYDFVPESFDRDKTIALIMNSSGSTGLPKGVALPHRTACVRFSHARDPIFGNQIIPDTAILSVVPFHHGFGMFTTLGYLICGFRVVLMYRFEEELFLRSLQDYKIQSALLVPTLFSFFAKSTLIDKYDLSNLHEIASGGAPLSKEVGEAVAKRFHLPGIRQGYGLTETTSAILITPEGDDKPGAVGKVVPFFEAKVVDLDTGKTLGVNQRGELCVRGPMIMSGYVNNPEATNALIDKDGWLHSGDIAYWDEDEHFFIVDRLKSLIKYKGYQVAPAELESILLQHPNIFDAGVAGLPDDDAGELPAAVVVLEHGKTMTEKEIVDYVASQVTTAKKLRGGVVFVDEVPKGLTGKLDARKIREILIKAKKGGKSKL

Row | SMILES | Potency
1 | O=C1N=c2ccccc2=C1c1sc(NS(=O)(=O)Cc2ccccc2)nc1O | active: 10.7 µM
2 | Cn1cnc2cc(OC(=O)c3ccccc3)ccc21 | active: 19 µM
3 | CCCSc1nnc2c(n1)OC(c1ccc(Br)s1)Nc1ccccc1-2 (stereo unspecified) | inconclusive: 30.1 µM [inhibitor, partial curve, poor fit]
4 | CCN(CC)C(=O)c1sc2c(c1C)c(=O)n(-c1ccc(Cl)c(Cl)c1)c(=O)n2Cc1cc(=O)n2ccccc2n1 | inactive
5 | CSc1cccc(NC(=O)CCc2ccccc2)c1 | inconclusive: 23.9 µM [inhibitor, partial curve, poor fit]
6 | O=C(CSc1nnc(Cc2ccccc2)n1-c1cccc(Cl)c1)NNC(=O)Cc1ccccc1 | inactive
7 | Cc1ccc(-c2cc(C(=O)N3CCOCC3)no2)cc1 | active: 0.536 µM
8 | CC(C)(C)NC(=O)NC(=O)COC(=O)c1cccc(S(=O)(=O)N2CCCCC2)c1 | inactive
9 | CCc1cc(CNC(=O)CCc2nnc(CCCc3ccccc3)o2)on1 | active: 19 µM
10 | Cc1ccc(S(=O)(=O)c2[nH]c(-c3ccccc3)nc2SCC(N)=O)cc1 | inconclusive: 12 µM [inhibitor, partial curve, poor fit]
11 | CNC(=O)c1cc2c(ccc3ccccc32)o1 | active: 19 µM
12 | CCOc1cc2[nH]c(=O)n(CCCCC(=O)N3CCN(c4ccc(OC)cc4)CC3)c(=O)c2cc1OCC | inactive
13 | COc1cc(/C=N/Nc2nc(C)cc(=O)[nH]2)cc(OC)c1O | inconclusive: 30.1 µM [inhibitor, partial curve, poor fit]
14 | CCOc1ccc(C(=O)Nc2nnc(S(=O)(=O)Nc3ccccc3)s2)cc1 | inconclusive: 19 µM [inhibitor, partial curve]
15 | O=C1CCCc2cc(S(=O)(=O)N3CCCC(C(=O)Nc4ccc(F)c(Cl)c4)C3)ccc2N1 (stereo unspecified) | inactive
16 | CC(C)c1nc2sc3c(=O)[nH]c(=S)[nH]c3c2c2c1CCC2 | inconclusive: 26.9 µM [inhibitor, single point]
17 | Cc1ccc(-n2c(C)cc(/C=c3/sc4nc5ccccc5n4c3=O)c2C)cc1 | active: 1.2 µM
18 | Cc1ccc(C)c(OCC(=O)Nc2cc(C)on2)c1 | inconclusive: 6.75 µM [inhibitor, full curve]
19 | CCCN1CCC(Oc2cccc(C(=O)NCCc3ccccc3)c2)CC1 | inconclusive: 21.3 µM [inhibitor, single point]
20 | O=C(COC(=O)c1ccc2c(c1)S(=O)(=O)N=C1CCCCCN12)NCCc1ccc(F)cc1 | inactive
21 | CCc1ccc(-c2nc(CS(=O)CC(=O)NCc3cccnc3)c(C)o2)cc1 (stereo unspecified) | inconclusive: 23.9 µM [inhibitor, single point]
22 | Cc1cccc(NS(=O)(=O)c2cccc(C(=O)NNC(=O)c3ccccc3O)c2)c1 | inconclusive: 23.9 µM [inhibitor, single point]
23 | COC(=O)COc1ccc2oc(-c3ccc(OC)cc3)cc(=O)c2c1 | inconclusive: 37.9 µM [inhibitor, single point]

Row | SMILES | Potency
24 | CCOC(=O)Cc1cnc(NC(=O)c2ccccc2)s1 | inconclusive: 26.9 µM [inhibitor, partial curve]
25 | O=C(Nc1ccc(Br)cc1)C1CCCC1 | inconclusive: 30.1 µM [inhibitor, partial curve, poor fit]
26 | CCOc1ccc(C(=O)CCC(=O)N(CC)CC(=O)NCc2cccs2)cc1 | inconclusive: 23.9 µM [inhibitor, partial curve, poor fit]
27 | CCOC(=O)c1ccc(N/C=C2\CCCCC2=O)cc1 | active: 2.69 µM
28 | Cc1cc(-c2nnc(CCC(=O)N(C)CCc3ccccc3)o2)no1 | inconclusive: 37.9 µM [inhibitor, partial curve, poor fit]
29 | O=C(Nc1ccc(Br)cc1F)C1CCN(c2nc3ccccc3[nH]2)CC1 | inactive
30 | Cc1ccc(-c2onc3ccc(C(=O)/C=C/N(C)C)cc23)cc1 | active: 15.1 µM
31 | Cc1ccc(NC(=O)CCC(=O)c2cccs2)nc1 | inconclusive: 37.9 µM [inhibitor, partial curve, poor fit]
32 | Cc1ccc(N/C=C/c2onc(C)c2[N+](=O)[O-])cc1 | active: 0.601 µM
33 | COc1cccc(Cn2c(C3CC3)nc3ccc(NC(=O)c4ccco4)cc3c2=O)c1 | inactive
34 | Cc1cc(C)c2nc(N3CCC(C(=O)N4CCN(C(=O)c5ccco5)CC4)CC3)sc2c1 | inconclusive: 21.3 µM [inhibitor, partial curve]
35 | Cn1c(SCC(=O)NCCc2ccccc2)ncc(C(=O)Nc2ccc(F)cc2)c1=O | inconclusive: 37.9 µM [inhibitor, partial curve, poor fit]
36 | O=S(=O)(N/N=C/c1ccc2c(c1)OCCO2)c1ccccc1 | inconclusive: 26.9 µM [inhibitor, partial curve]
37 | COc1ccc2oc(C(=O)OCc3c(C)noc3C)c(C)c2c1 | inconclusive: 33.8 µM [inhibitor, single point]
38 | O=c1oc2ccccc2c(O)c1/C=N/c1ncccn1 | inconclusive: 23.9 µM [inhibitor, single point]
39 | COCCCNC(=O)C1CCN(C(=O)c2cnn(-c3ccccc3)c2-n2cccc2)CC1 | inactive
40 | CC(=O)Nc1ccc(/C=N/NC(=O)c2cc(-c3ccco3)nc3ccccc23)cc1 | active: 2.13 µM
41 | CC(C)CC(=O)Nc1nc2nc(-c3ccccc3)cc(=O)n2[nH]1 | inconclusive: 16.9 µM [inhibitor, partial curve, poor fit]
42 | CCN(Cc1ccccc1)C(=O)c1cc2c(OC)c(OC)c(OC)cc2[nH]1 | inactive
43 | CCCCN(CCCNC(=O)c1ccc(Sc2ccc(Cl)cc2)c(NC(C)=O)c1)c1ccccc1 | inconclusive: 6.75 µM [inhibitor, partial curve, poor fit]
44 | Cc1ccccc1NC(=O)/C(C#N)=C\c1cn(CC(=O)O)c2ccccc12 | inconclusive: 23.9 µM [inhibitor, partial curve]
45 | COc1ccc(C(C)=O)cc1COC(=O)c1ccc2c(c1)OCCO2 | inactive
46 | CN(C(=O)COC(=O)/C=C/c1ccc2ccccc2n1)c1c(N)n(Cc2ccccc2)c(=O)[nH]c1=O | inconclusive: 16.9 µM [inhibitor, partial curve, poor fit]
